Our source for the binding values is publication PMC4921775, “Transient Fcho1/2⋅Eps15/R⋅AP-2 Nanoclusters Prime the AP-2 Clathrin Adaptor for Cargo Binding” (Developmental Cell, 2016).

The chains behind the UniProt entries cited, without tags or fusion partners.
UniProt Q15811: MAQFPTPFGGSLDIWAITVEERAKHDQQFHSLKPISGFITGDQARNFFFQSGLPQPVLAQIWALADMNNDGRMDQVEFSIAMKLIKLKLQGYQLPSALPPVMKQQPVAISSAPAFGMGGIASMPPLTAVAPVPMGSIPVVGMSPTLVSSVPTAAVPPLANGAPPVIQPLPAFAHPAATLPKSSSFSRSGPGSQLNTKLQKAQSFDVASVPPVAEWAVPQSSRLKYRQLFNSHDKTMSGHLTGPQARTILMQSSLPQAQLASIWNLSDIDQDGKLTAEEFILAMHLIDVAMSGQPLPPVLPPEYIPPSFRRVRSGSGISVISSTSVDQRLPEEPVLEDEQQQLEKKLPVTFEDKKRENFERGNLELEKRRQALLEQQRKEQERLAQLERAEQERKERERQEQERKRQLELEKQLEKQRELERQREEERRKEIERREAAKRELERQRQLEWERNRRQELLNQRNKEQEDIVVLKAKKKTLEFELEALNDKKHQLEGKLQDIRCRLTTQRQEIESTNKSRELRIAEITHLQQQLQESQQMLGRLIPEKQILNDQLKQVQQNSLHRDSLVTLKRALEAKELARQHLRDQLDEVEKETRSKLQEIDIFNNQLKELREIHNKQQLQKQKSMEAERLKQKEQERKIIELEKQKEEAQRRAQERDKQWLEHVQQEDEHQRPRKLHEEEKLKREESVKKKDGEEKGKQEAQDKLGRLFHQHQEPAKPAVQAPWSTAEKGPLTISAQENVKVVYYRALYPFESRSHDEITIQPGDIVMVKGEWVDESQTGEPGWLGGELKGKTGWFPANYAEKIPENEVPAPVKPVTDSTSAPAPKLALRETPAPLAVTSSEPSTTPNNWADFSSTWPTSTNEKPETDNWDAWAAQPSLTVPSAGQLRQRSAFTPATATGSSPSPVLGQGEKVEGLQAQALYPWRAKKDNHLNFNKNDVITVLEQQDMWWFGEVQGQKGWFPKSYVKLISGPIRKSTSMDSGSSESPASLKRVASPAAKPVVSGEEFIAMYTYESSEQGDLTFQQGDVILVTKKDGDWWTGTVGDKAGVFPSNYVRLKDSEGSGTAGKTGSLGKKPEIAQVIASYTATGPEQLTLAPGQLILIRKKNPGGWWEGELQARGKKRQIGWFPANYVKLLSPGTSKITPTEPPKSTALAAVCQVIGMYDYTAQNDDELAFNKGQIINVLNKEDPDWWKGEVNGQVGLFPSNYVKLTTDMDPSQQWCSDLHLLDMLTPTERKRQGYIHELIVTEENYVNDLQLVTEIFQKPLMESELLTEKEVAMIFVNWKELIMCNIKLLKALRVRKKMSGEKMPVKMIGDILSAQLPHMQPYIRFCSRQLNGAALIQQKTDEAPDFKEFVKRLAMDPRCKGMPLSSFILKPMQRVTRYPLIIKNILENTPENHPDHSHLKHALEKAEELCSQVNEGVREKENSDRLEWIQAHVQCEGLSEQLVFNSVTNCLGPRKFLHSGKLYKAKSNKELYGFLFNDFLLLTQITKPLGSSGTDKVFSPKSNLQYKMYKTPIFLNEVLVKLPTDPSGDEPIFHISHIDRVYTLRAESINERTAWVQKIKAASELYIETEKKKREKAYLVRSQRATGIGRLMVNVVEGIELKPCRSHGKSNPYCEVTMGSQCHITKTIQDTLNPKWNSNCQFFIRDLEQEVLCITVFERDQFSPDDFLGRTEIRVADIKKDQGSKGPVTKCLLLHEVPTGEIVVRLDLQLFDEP

In assay [1] the target is T1, GST-FCHO1 μHD (human) (UniProt O14526).
T1 sequence: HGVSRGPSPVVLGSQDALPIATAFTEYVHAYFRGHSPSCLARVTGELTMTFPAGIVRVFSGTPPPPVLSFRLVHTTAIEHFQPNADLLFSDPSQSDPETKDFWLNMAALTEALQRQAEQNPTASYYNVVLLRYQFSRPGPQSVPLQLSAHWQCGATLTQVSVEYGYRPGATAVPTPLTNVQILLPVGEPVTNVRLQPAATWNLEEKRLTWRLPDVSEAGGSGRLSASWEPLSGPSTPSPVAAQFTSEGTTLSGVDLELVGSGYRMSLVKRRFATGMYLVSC
The assay can be described thus: pull-down; GST-μHD fusion proteins on glutathione-Sepharose, cytosolic partner proteins detected by blot; Figures S1E, S3A, S3B, S3E (legends not shown, source of the extract not told); only the target purified.

Assay [2] deals with T2, GST-EPS15 (615–637)-FCHO1 μHD chimera (human) (UniProt P42566+O14526).
T2 sequence: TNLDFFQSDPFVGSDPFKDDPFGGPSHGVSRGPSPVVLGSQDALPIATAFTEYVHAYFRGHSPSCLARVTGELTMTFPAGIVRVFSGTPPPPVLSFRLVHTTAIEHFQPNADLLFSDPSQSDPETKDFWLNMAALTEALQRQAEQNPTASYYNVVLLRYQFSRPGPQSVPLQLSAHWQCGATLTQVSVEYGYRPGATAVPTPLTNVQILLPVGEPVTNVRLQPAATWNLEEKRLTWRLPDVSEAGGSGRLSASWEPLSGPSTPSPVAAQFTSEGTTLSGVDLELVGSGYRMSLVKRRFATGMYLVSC
The assay is described as follows: pull-down; HeLa cell lysate with 250 μg (Figure 3F: the indicated amount) of GST or GST-μHD fusion proteins immobilised on glutathione-Sepharose; supernatant and pellet stained or immunoblotted; Figures 1G, 3E, 3F; only the target purified.

Assay [3] addresses T3, GST-ΔEPS15 (626–637)-FCHO1 μHD chimera (human) (UniProt P42566+O14526).
T3 sequence: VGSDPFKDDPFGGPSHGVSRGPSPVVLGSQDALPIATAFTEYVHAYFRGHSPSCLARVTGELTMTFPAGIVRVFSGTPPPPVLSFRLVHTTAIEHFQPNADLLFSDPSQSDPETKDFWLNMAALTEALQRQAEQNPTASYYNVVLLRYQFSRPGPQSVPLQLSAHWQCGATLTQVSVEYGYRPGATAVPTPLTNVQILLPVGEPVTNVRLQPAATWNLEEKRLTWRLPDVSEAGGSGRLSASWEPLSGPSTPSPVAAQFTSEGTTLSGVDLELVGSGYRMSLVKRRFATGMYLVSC
The description is as above.

For assay [4], the target named is T4, GST-EPS15 (615–637; 623DPF→APA)-FCHO1 μHD chimera (human) (UniProt P42566+O14526).
T4 sequence: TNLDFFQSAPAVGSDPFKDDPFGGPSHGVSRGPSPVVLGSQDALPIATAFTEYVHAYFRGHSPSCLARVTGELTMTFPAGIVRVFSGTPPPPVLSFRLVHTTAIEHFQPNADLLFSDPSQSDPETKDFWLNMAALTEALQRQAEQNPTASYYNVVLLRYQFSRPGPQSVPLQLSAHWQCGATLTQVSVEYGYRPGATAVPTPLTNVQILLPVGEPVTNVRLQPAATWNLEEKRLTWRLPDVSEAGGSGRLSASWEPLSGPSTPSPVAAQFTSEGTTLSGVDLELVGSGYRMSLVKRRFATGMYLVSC
The description is as above.

For assay [5], the target named is T1, GST-FCHO1 μHD (human). The description is as above.
The target of assay [6] is T5, GST-FCHO1 μHD R872A + S874G (human) (UniProt O14526).
T5 sequence: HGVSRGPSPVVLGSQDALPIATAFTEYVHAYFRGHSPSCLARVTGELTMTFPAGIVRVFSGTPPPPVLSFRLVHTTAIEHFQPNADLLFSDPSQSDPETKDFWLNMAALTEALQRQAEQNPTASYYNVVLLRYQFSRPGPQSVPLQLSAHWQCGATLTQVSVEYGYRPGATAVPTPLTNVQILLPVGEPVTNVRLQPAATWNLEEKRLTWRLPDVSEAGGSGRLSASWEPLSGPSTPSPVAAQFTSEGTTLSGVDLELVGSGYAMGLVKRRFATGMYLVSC
The assay can be described thus: pull-down; GST-μHD fusion proteins on glutathione-Sepharose, cytosolic partner proteins detected by blot; Figures S1E, S3A, S3B, S3E (legends not shown, source of the extract not told); only the target purified.

The target of assay [7] is T6, GST-FCHO1 μHD S732D (human) (UniProt O14526).
T6 sequence: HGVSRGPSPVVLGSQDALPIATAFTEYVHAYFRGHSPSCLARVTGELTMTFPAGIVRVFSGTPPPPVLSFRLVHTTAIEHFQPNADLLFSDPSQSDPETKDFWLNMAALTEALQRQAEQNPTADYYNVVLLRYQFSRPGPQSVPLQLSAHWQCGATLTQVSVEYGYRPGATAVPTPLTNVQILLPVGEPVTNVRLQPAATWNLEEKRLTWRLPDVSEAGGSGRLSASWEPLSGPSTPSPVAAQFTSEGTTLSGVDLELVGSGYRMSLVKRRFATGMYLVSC
Described as above.

The target of assay [8] is T2, GST-EPS15 (615–637)-FCHO1 μHD chimera (human). The assay can be described thus: pull-down; HeLa cell lysate with 250 μg (Figure 3F: the indicated amount) of GST or GST-μHD fusion proteins immobilised on glutathione-Sepharose; supernatant and pellet stained or immunoblotted; Figures 1G, 3E, 3F; only the target purified. The source holds these as a separate data set.
Assay [9] deals with T3, GST-ΔEPS15 (626–637)-FCHO1 μHD chimera (human). The description is as above. This is another data set of the same source.
In assay [10] the target is T7, GST-FCHO1 μHD N735A + R740A (human) (UniProt O14526).
T7 sequence: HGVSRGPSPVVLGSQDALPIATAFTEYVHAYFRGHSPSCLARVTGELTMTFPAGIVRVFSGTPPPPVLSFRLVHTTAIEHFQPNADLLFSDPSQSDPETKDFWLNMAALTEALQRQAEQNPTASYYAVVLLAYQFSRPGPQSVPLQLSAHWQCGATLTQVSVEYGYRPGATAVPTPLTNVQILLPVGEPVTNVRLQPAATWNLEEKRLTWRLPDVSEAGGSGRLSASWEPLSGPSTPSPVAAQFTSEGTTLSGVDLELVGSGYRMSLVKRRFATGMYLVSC
The assay is described as above.

In assay [11] the target is T4, GST-EPS15 (615–637; 623DPF→APA)-FCHO1 μHD chimera (human). The description is as above. This is another data set of the same source.
In assay [12] the target is T1, GST-FCHO1 μHD (human). Described as above. The source holds these as a separate data set.
The target in assay [13] is T8, FCHO1 μHD P627D + A629E (for ITC) (human, UniProt O14526 609-889, P627D | A629E).
T8 sequence (looked up): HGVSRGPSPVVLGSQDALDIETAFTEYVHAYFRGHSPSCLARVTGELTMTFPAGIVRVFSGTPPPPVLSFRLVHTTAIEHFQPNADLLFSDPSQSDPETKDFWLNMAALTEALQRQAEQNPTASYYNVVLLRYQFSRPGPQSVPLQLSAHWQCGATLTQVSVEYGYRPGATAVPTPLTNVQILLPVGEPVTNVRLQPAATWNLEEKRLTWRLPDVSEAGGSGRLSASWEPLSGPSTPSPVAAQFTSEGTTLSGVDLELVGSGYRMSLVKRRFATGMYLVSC
The assay is described as follows: ITC; repeated injection of EPS15 peptides into a temperature-controlled solution of μHD, Nano ITC instrument (TA Instruments); minimum of four runs; both purified.

In assay [14] the target is T9, FCHO1 μHD K877E + R879A (for ITC) (human, UniProt O14526 609-889, K877E | R879A).
T9 sequence (looked up): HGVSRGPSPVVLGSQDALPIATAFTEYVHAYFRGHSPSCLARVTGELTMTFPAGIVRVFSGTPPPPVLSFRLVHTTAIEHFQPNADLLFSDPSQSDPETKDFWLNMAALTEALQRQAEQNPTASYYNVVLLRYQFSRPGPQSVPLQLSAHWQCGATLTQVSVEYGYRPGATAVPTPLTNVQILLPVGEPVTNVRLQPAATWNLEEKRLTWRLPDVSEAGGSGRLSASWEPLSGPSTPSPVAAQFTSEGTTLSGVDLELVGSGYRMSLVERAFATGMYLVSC
The assay is described as above.

Assay [15] concerns the target T10, FCHO1 μHD A629E (for ITC) (human, UniProt O14526 609-889, A629E).
T10 sequence (looked up): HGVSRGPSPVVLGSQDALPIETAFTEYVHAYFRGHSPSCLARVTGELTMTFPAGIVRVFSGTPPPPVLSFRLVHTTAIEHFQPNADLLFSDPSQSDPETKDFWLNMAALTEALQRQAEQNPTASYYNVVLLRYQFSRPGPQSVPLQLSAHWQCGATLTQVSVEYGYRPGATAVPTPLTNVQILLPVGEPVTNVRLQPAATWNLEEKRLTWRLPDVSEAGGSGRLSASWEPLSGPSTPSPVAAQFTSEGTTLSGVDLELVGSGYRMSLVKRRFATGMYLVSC
The description is as above.

Read-outs that look alike come from different tables or passages of the source. These are yes or no findings as the source states them, for the method shown. For some of these results: In cells and extracts the contact can be indirect. Some results given as binding are weak or reduced against the parent protein; the word gives no strength. For some of these results: Where a sequence is shown, tags or fusion partners need not be part of it.

For the molecule “intersectin 1 (from UniProt Q15811 1-1721)”, the binding result is given as “binds” in the assay with GST-FCHO1 μHD (human) [1]; “no binding” in [2]; “binds” in [3]; “binds” in [4]; “binds” with GST-FCHO1 μHD (human) [5].

B1: EPS15 (epidermal growth factor pathway substrate 15) (natural protein, human (endogenous in HeLa), UniProt P42566 1-896, looked up)
chain: MAAAAQLSLTQLSSGNPVYEKYYRQVDTGNTGRVLASDAAAFLKKSGLPDLILGKIWDLADTDGKGILNKQEFFVALRLVACAQNGLEVSLSSLNLAVPPPRFHDTSSPLLISGTSAAELPWAVKPEDKAKYDAIFDSLSPVNGFLSGDKVKPVLLNSKLPVDILGRVWELSDIDHDGMLDRDEFAVAMFLVYCALEKEPVPMSLPPALVPPSKRKTWVVSPAEKAKYDEIFLKTDKDMDGFVSGLEVREIFLKTGLPSTLLAHIWSLCDTKDCGKLSKDQFALAFHLISQKLIKGIDPPHVLTPEMIPPSDRASLQKNIIGSSPVADFSAIKELDTLNNEIVDLQREKNNVEQDLKEKEDTIKQRTSEVQDLQDEVQRENTNLQKLQAQKQQVQELLDELDEQKAQLEEQLKEVRKKCAEEAQLISSLKAELTSQESQISTYEEELAKAREELSRLQQETAELEESVESGKAQLEPLQQHLQDSQQEISSMQMKLMEMKDLENHNSQLNWCSSPHSILVNGATDYCSLSTSSSETANLNEHVEGQSNLESEPIHQESPARSSPELLPSGVTDENEVTTAVTEKVCSELDNNRHSKEEDPFNVDSSSLTGPVADTNLDFFQSDPFVGSDPFKDDPFGKIDPFGGDPFKGSDPFASDCFFRQSTDPFATSSTDPFSAANNSSITSVETLKHNDPFAPGGTVVAASDSATDPFASVFGNESFGGGFADFSTLSKVNNEDPFRSATSSSVSNVVITKNVFEETSVKSEDEPPALPPKIGTPTRPCPLPPGKRSINKLDSPDPFKLNDPFQPFPGNDSPKEKDPEIFCDPFTSATTTTNKEADPSNFANFSAYPSEEDMIEWAKRESEREEEQRLARLNQQEQEDLELAIALSKSEISEA
notes: human EPS15, endogenous protein; also called native EPS15 dimer/tetramer
With B1, the binding result in assay [6] was “binds”; in assay [7], “binds”; in the assay with GST-FCHO1 μHD (human) [1], “binds”; in [8], “no binding”; in assay [9], “binds”; in assay [10], “binds”. For the same molecule, the binding result (in assay [11]; with GST-FCHO1 μHD (human) [12]) was “binds” throughout.
Turning to NLDFFQSDPFVGSDPFKDDPFGK (peptide, UniProt P42566 616-638) [EPS15 616–638 peptide], the binding result in assay [13], in [14] and in assay [15] was “no binding (tested: KD > 300 μM)” each time.
